# Measurements taken from the RNAGym collection of RNA variant scans (doi:10.1073/pnas.2313332121).
# Variants at the floor of the assay are shown more often than the library holds them.
# B1: TPR 5TU (parent)
# chain: GGAUCUUCUCGAUCUAACAAAAAAGACAAAUCUGCCACAAAGCUUGAGAGCAUCUUCGGAUGCAGAGGCGGCAGCCUUCGGUGGCGCGAUAGCGCCAACGUUCUCAACUAUGACACGCAAAACGCGUGCUCCGUUGAAUGGAGUUUAUCAUG
# Variants of: B1
# Experiment: polymerase ribozyme fitness, log enrichment relative to wild type (log ratio); higher = more active; in vitro selection for triplet polymerase activity
# Summary of the method: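 Only genotypes with ≥10 input reads and ≥1 read per output were kept after Illumina sequencing of input and output libraries. These libraries were PCR-built, transcribed mutants of each subunit of a heterodimeric triplet polymerase ribozyme, each put through one triplicate in vitro selection round with frozen incubation at −7 °C, gel excision of extended constructs, streptavidin-bead capture and RT-PCR. Fitness is a logarithmic ratio of genotype enrichment to wild-type enrichment, from inverse-variance-weighted replicate averages, with the logarithm in base 2.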
row,Variant,polymerase ribozyme fitness (log ratio)
1,G74A U148A,≤ -4.2
2,G74C A89U U146C,≤ -4.2
3,G74C C103G G141A U145G A147U G152A,≤ -4.2
4,G74C G94C,≤ -4.2
5,G74C U82C,-4.05
6,G74C U82C C87U,≤ -4.2
7,G74C U90C A91C U104G U130A,≤ -4.2
8,G74U A97U,-4.18
9,G74U C75A G86U A97U A106G A150U,≤ -4.2
10,G74U C85G,≤ -4.2
11,G74U C93U,≤ -4.2
12,G74U C105G G133C,≤ -4.2
13,G74U G81C A121C U146G,≤ -4.2
14,C75A C85A C108A G126A,≤ -4.2
15,C75A C87U C96U,≤ -4.2
16,C75A C93A,≤ -4.2
17,C75A C95U C108G G140U,≤ -4.2
18,C75A C95U C108U C114U,≤ -4.2
19,C75A C96G G141U,≤ -4.2
20,C75A C118U,≤ -4.2
21,C75A G83U A89U U101A G126A A138C,≤ -4.2
22,C75A G84U A89G G92C U127A C129G U146A C149G,≤ -4.2
23,C75A G92C C96G A147U,≤ -4.2
24,C75G A91U U144A U145C,≤ -4.2

row,Variant,polymerase ribozyme fitness (log ratio)
1,C75G A107C C108A,≤ -4.2
2,C75G C76G G81U C95G,≤ -4.2
3,C75G C85U C129A,≤ -4.2
4,C75G C93U C108G G124A,≤ -4.2
5,C75G C108A A120U G133U,≤ -4.2
6,C75G G81A G92U C125G,≤ -4.2
7,C75G G83C A89G C118U G141U,≤ -4.2
8,C75G G83C G124U,≤ -4.2
9,C75G G84A C99U G117U A142C U144C,≤ -4.2
10,C75G G86A C99U,≤ -4.2
11,C75G G94A A121G,≤ -4.2
12,C75G U82A A91U A113U,≤ -4.2
13,C75G U104A G143C,≤ -4.2
14,C75U A91U,≤ -4.2
15,C75U A121G,-0.596
16,C75U C87U U90G A97G G143U U148C,≤ -4.2
17,C75U C93G A121U C123U,-2.27
18,C75U C96G,0.716
19,C75U G88A A119U,≤ -4.2
20,C75U G88A A147G,≤ -4.2
21,C75U G88C C116A A150C,≤ -4.2
22,C75U G92A C125A U145C,≤ -4.2
23,C75U G92C C132A,≤ -4.2
24,C75U G92U G112C A113U C114G,≤ -4.2

row,Variant,polymerase ribozyme fitness (log ratio)
1,C75U G128A,-3.95
2,C75U U134A,-1.13
3,C75U U144C,-0.607
4,C76A A89G C95G,≤ -4.2
5,C76A A97G,-1.4
6,C76A A110G,≤ -4.2
7,C76A C79A C96U G141C,≤ -4.2
8,C76A C85A,-1.96
9,C76A C85A A89C A91G G140U U146C,≤ -4.2
10,C76A C96G,-1.51
11,C76A C96U U145G,-0.785
12,C76A C103A,≤ -4.2
13,C76A C105A G136A,≤ -4.2
14,C76A C125G U144G,-2.22
15,C76A C131G U139A A150G,≤ -4.2
16,C76A G81U C96U U146C U151C,≤ -4.2
17,C76A G83C A137G,-3.62
18,C76A U77G C79U A91U C132U G140A,≤ -4.2
19,C76A U77G C95U G100U,-4.15
20,C76A U78C C99A C105A,≤ -4.2
21,C76A U104C,-3.57
22,C76A U145C,-0.484
23,C76G A91C C123U,≤ -4.2
24,C76G A98G A113U U151G,≤ -4.2

row,Variant,polymerase ribozyme fitness (log ratio)
1,C76G A107C G143U,≤ -4.2
2,C76G A115G A121U,≤ -4.2
3,C76G A138C U145A,≤ -4.2
4,C76G C85A A147U,≤ -4.2
5,C76G C85A G88C C95A A115C,≤ -4.2
6,C76G C87A,≤ -4.2
7,C76G C87A U111A,≤ -4.2
8,C76G G83U C103U,≤ -4.2
9,C76G G84A C118A G141C,≤ -4.2
10,C76G G84U C116A,≤ -4.2
11,C76G G86A A150U,≤ -4.2
12,C76G G92A U134C,≤ -4.2
13,C76G G100U A107G,≤ -4.2
14,C76G U90A C116G,≤ -4.2
15,C76G U109G A110G,≤ -4.2
16,C76G U127C A150U,≤ -4.2
17,C76U A91U,-4.13
18,C76U A110G A122G G140C,≤ -4.2
19,C76U A150C,-3.79
20,C76U C85A G88C C118U,≤ -4.2
21,C76U C85U C99G,-1.05
22,C76U C87A,-3.85
23,C76U C93A,-2.34
24,C76U C93G C103G G117A,≤ -4.2

row,Variant,polymerase ribozyme fitness (log ratio)
1,C76U C95U,0.961
2,C76U C96U,0.0365
3,C76U G88A G152U,≤ -4.2
4,C76U G112A G152A,≤ -4.2
5,C76U U77C C85U C108A A120U,≤ -4.2
6,C76U U77C C93A C99G U101G C108U G136A,≤ -4.2
7,C76U U135G,-2.79
8,U77A G80C U90G C105U U111C,≤ -4.2
9,U77A G81A A113U U134G,≤ -4.2
10,U77A G92A C105U A106C A121G,≤ -4.2
11,U77A G92A C118A G136U,≤ -4.2
12,U77A G94C C95G U134A,≤ -4.2
13,U77A G94U U151G,≤ -4.2
14,U77A G117U,≤ -4.2
15,U77A G128A U134A A142U,≤ -4.2
16,U77A U78C G94U C95G C105U,≤ -4.2
17,U77C A91U U146A,≤ -4.2
18,U77C C87G A142G,≤ -4.2
19,U77C C93U G100A A119U A150C,≤ -4.2
20,U77C C96U U145C,≤ -4.2
21,U77C C105U U139A,≤ -4.2
22,U77C G84U A115G,≤ -4.2
23,U77C U90A A119G A137G,≤ -4.2
24,U77C U104A G126U,≤ -4.2

row,Variant,polymerase ribozyme fitness (log ratio)
1,U77G A89G C95G C105G C108G,≤ -4.2
2,U77G A91G G152A,≤ -4.2
3,U77G A122U,≤ -4.2
4,U77G C85A U148A,≤ -4.2
5,U77G C93A A97U G133C,≤ -4.2
6,U77G C99U,≤ -4.2
7,U77G C99U A147C,≤ -4.2
8,U77G G86C C105U U130G,≤ -4.2
9,U77G U78G A106C,≤ -4.2
10,U78A,-3.62
11,U78A C93A G124U,≤ -4.2
12,U78A C93G C108U,≤ -4.2
13,U78C,-0.318
14,U78C C79A C85A G112U U139A,≤ -4.2
15,U78C C87U G92A A115U,-2.33
16,U78G,≤ -4.2
17,U78G A89U C93G A106G C118G U145C A150U U151G,≤ -4.2
18,U78G C85G A142G U146C,≤ -4.2
19,U78G C85U G126U,≤ -4.2
20,U78G C116U A137C,≤ -4.2
21,U78G G80A G83C C87A C95A U101G U104C U144C,≤ -4.2
22,U78G G86A,≤ -4.2
23,U78G G92A G141A,≤ -4.2
24,U78G G94A A122G,≤ -4.2

row,Variant,polymerase ribozyme fitness (log ratio)
1,U78G G141C,≤ -4.2
2,U78G U90G C131A,≤ -4.2
3,U78G U127C,≤ -4.2
4,C79A A91G A110G,≤ -4.2
5,C79A A98G A137U,≤ -4.2
6,C79A A98U C118A C125U A137U,≤ -4.2
7,C79A A106G G140C,≤ -4.2
8,C79A C96A,-4.03
9,C79A C96A C131G,≤ -4.2
10,C79A C96U,≤ -4.2
11,C79A C103G,≤ -4.2
12,C79A C103G C131A,≤ -4.2
13,C79A G80A G81A G88U,≤ -4.2
14,C79A G80C U109C,≤ -4.2
15,C79A G84A C93G G140U,≤ -4.2
16,C79A G86U A89C C103G,≤ -4.2
17,C79A G94C,≤ -4.2
18,C79A G94C C95A,≤ -4.2
19,C79A G117A,≤ -4.2
20,C79A G140A,≤ -4.2
21,C79A U82C G84U A119U,≤ -4.2
22,C79A U82G C93A G141U G152U,≤ -4.2
23,C79A U134C,≤ -4.2
